Test results from patent publication US5449612A, “Process for identifying candida by means of chromogenic substances” (Serbio, priority 1990, dated 1995).

Tests used:
[1] = system: Candida zeylanoides; experiment: Growth with maltose as the carbon source; settings: 10 to 40 g/l
Text: The specificity of the method of identification is ensured, according to the invention, by associating inhibitors with the substrate.
The carbon source will consist of a sugar, especially glucose or maltose, at a concentration of 10 to 40 g/l.

[2] = system: yeasts belonging to the group of the Candida and Torulopsis; experiment: Growth inhibition by cycloheximide in the culture medium; type: cell-based; settings: incorporated in the culture medium containing the substrate
Text: Among the inhibitors which are suitable, there may be mentioned especially antibacterial substances (such as chloramphenicol, gentamycin and the like) and antifungal substances (such as cycloheximide and the like, which, in the presence of a specific substrate of the invention, such as H-L-Pro-pNA, only permit hydrolysis by Candida albicans) for eliminating the contaminants or selecting the strains which it is desired to identify.

| SMILES | inhibition of the growth of the strains of Candida zeylanoides [1] | inhibition of growth of the yeasts which interfere with the specificity of the substrate for Candida albicans [2] |
| --- | --- | --- |
| OC[C@H]1O[C@H](O[C@H]2[C@H](O)[C@@H](O)C(O)O[C@@H]2CO)[C@H](O)[C@@H](O)[C@@H]1O (mixture of isomers) [maltose] | inhibiting the growth |  |
| C[C@@H]1C[C@@H]([C@H](O)CC2CC(=O)NC(=O)C2)C(=O)[C@@H](C)C1 [cycloheximide] |  | inhibits the growth |
